# The campaign covered roughly 320,000 compounds. About 200 (0.062%) were called active. Inconclusive results, whose numbers are uncertain, are shown with a selection of clear calls. Calls follow the shape of the dose curve; as a rule, active = well fitted activation curve with a large enough effect; inconclusive = small, poorly fitted or top-dose-only effect; inactive = no such curve, though single readings can be large or run the other way. Potencies of inconclusive entries are left out as doubtful fits.
# Assay: qHTS assay for re-activators of p53 using a Luc reporter; also: nearly all actives have a fitted effect of over 45% in size
# Conditions: H1299 p53-A138V BP100-luciferase reporter, luminescence, 24 h; series mostly up to 92.2 µM
# Procedure, shortened: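 p53-null H1299 cells stably carrying temperature-sensitive p53-A138V and a BP100-luciferase reporter were pinned with compounds (4-point, 1:5 series) and held 24 hrs at 37 deg C. Luminescence was read 10 min after detection reagent.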
# Potency is read from the fitted curve at half-maximal effect; tags tell the direction and shape of the fitted curve.
row,Compound,Potency
1,COc1ccc(CC(=O)c2ccc(OC3OC(CO)C(O)C(O)C3O)cc2O)cc1 (centres undefined),"inconclusive [activator, single point]"
2,O=C(C1CCN(S(=O)(=O)c2ccccc2)CC1)N1CCC1,"inconclusive [activator, single point]"
3,CCn1cc(S(=O)(=O)CC(=O)Nc2cc(C)ccc2C)c2ccccc21,inactive
4,COc1ccc(/C=C/C(=O)Oc2ccc(/C=N/NC(=O)c3ccccc3)cc2)cc1OC,"inconclusive [activator, single point]"
5,Cn1c(CN2CCOCC2)nc2cc(NC(=O)c3ccc(F)cc3)ccc21,inactive
6,Cc1noc2ncnc(Sc3c(Cl)cccc3Cl)c12,"inconclusive [activator, single point]"
7,Cc1ccc2c(Cl)c(C)c(N3CCCC3)nc2n1,inactive
8,COc1ccc(NC(=O)CCOc2ccccc2F)cc1S(=O)(=O)N1CCCCC1,inactive
9,C/C(=N\NC(=O)c1ccccc1F)c1ccccn1,"inconclusive [activator, full curve, poor fit]"
10,COCCn1c(SCC(N)=O)nc2c(c1=O)SC(C)C2 (centres undefined),"inconclusive [activator, single point]"
11,CC1CCCCN1C(=O)CSc1nnc(-c2ccccc2O)o1 (centres undefined),"inconclusive [activator, partial curve, poor fit]"
12,CCc1ccc(-c2ccc(C(=O)O)cc2)nc1,"inconclusive [activator, single point]"
13,O=C(Nc1cccnc1)c1cnc2ccccc2n1,"inconclusive [activator, partial curve, poor fit]"
14,Cc1ccc2nc(-c3ccc(NC(=O)CN4C(=O)c5ccccc5C4=O)cc3)sc2c1,"inconclusive [activator, full curve, poor fit]"
15,O=C(NCc1cccs1)c1cc2c(s1)CCCC2,"inconclusive [activator, partial curve, poor fit]"
16,Cc1cccc(-c2nnn(CC/C(N)=N/O)n2)c1,"inconclusive [activator, full curve, poor fit]"
17,O=C(c1cc2nc(-c3ccco3)cc(C(F)(F)F)n2n1)N1CCCCCC1,inactive
18,O=C(COC(=O)c1ccccc1Br)NCC1CCCCC1,"inconclusive [activator, partial curve, poor fit]"
19,CC(C)NC(=O)c1onc(CSc2ccccc2)c1C(=O)O,inactive
20,CSc1ccc(/C=N/NC(=O)c2sccc2C)cc1,"inconclusive [activator, full curve, poor fit]"
21,COc1ccc(-n2nc([N+](=O)[O-])c(=NCCc3ccc(C)cc3)n2O)cc1,"inconclusive [activator, partial curve]"
22,O=S(=O)(NCc1ccccc1Cl)c1ccc(-n2cnnn2)cc1,"inconclusive [activator, single point]"

row,Compound,Potency
1,CC(CN1CCCC1)OC(=O)Cc1ccc(Cl)cc1 (centres undefined),"inconclusive [activator, single point]"
2,COc1cc(NC(=O)CSCc2ccc(Cl)cc2)c(C(=O)O)cc1OC,"inconclusive [activator, partial curve, poor fit]"
3,O=[N+]([O-])c1ccc(Cl)c(/C=N/n2c(COc3ccccc3)n[nH]c2=S)c1,inactive
4,CCOc1ccccc1Oc1coc2cc(O)ccc2c1=O,"inconclusive [activator, single point]"
5,O=C(O)CC(NC(=O)c1ccc2c(c1)OCO2)c1cccc([N+](=O)[O-])c1 (centres undefined),inactive
6,CC(=O)Nc1ccc(C2C(=O)c3ccccc3C2=O)cc1,inactive
7,CC(C)OC(=O)c1ccc(OC(=O)c2cccnc2)cc1,"inconclusive [activator, single point]"
8,C#CCOCCOCCOCCNc1nc(N2CCN(C(=O)[C@H](CCCCN)n3cc(C(N)COC(=O)C(F)(F)F)nn3)CC2)nc(N2CCN(C(=O)[C@H](CCCCN)n3cc(C(N)CC(C)C)nn3)CC2)n1 (some centres undefined),inactive
9,Cc1ccc(CNC(=O)NC2CCCCC2)cc1,"inconclusive [activator, partial curve, poor fit]"
10,C1=Nc2ccccc2CN1c1ccccc1,"inconclusive [activator, partial curve, poor fit]"
11,Cn1cccc1C(=O)OCC(=O)Nc1ccc2c(c1)OCO2,"inconclusive [activator, partial curve, poor fit]"
12,O=C(/C=C/c1ccccc1)Nc1ccc(CN2CCOCC2)cc1,"inconclusive [activator, partial curve, poor fit]"
13,COc1ccc(-n2nc(C(=O)NCC(=O)N3CCN(c4ccccc4OC)CC3)c3ccccc3c2=O)c(OC)c1,"inconclusive [activator, full curve, poor fit]"
14,CC(=O)c1cccc(N2C(=O)C3C4CCC(C4=C(C)C)C3C2=O)c1 (centres undefined),inactive
15,CCC(CC)C(=O)Nc1cccc(SC)c1,inactive
16,COC(=O)c1ccc(-c2ccc(Cl)cc2)nc1C,"inconclusive [activator, partial curve, poor fit]"
17,Cc1ccc(NC(=O)CSCC(=O)O)c(C)c1,"inconclusive [activator, single point]"
18,Cc1ccc(/C=N/NC(=O)C2CC(=O)N(c3ccccc3)C2)s1 (centres undefined),inactive
19,CCOc1ncccc1C(=O)Nc1cc(S(=O)(=O)N2CCOCC2)ccc1OCC(F)(F)F,inactive
20,O=C(Nc1nccs1)c1ccc(-c2ccc(Cl)cc2Cl)o1,"inconclusive [activator, partial curve, poor fit]"
21,Cc1ccc(OCCOc2ccc(Br)cc2)c([N+](=O)[O-])n1,"inconclusive [activator, partial curve, poor fit]"
22,CCC(=O)Nc1ccc(NC(=O)c2ccco2)c(OC)c1,"inconclusive [activator, full curve, poor fit]"
